Data reported in PubChem BioAssay AID1030 (National Center for Advancing Translational Sciences (NCATS), 2008).
Hit rate of the full screen: of about 220,000 compounds, about 16,000 (7.3%) were called active. Inconclusive means that the source gave no clear call. Such entries were picked first, then a sample of the others. Calls follow the shape of the dose curve; as a rule, active = well fitted inhibition curve with a large enough effect (not every such curve was filed as active); inconclusive = small, poorly fitted or top-dose-only effect, or another doubt; inactive = no such curve, though single readings can be large or run the other way. A potency beside an inconclusive call is a rough fit, not a confirmed value.

Biological target: Aldehyde dehydrogenase 1A1 (Homo sapiens) (UniProt P00352)
Chain of UniProt P00352 (P00352 whole entry, looked up): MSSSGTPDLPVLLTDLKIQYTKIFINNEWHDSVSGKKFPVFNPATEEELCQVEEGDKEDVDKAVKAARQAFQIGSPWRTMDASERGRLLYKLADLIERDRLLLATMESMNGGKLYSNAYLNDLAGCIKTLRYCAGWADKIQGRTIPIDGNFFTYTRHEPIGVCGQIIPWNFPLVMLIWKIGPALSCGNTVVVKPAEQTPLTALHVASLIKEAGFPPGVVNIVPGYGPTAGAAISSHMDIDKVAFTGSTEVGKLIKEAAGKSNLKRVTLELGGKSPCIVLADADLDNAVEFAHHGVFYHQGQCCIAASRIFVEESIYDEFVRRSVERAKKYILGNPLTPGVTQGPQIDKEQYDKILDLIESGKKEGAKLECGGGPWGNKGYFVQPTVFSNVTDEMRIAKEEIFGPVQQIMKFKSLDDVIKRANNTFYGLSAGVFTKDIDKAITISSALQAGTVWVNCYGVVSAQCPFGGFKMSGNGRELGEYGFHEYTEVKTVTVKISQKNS
Test: qHTS Assay for Inhibitors of Aldehyde Dehydrogenase 1 (ALDH1A1);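 as to activity, negative = inhibition: plate controls were no enzyme wells and a reference inhibitor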
Conditions: Purified ALDH1A1, NADH fluorescence, propionaldehyde substrate; series mostly up to 75.3 µM; activity, negative = inhibition: at the top concentration
Potency is read from the fitted curve at half-maximal effect; tags tell the direction and shape of the fitted curve.

activity, negative = inhibition, inactive:
CCOC(=O)N1CCN(C(=O)c2ccc3nc(N4CCCCC4)sc3c2)CC1 -3.01%
Cc1ccccc1OCC(O)CN(Cc1ccccc1O)C1CCCCC1 (stereo unspecified) 7.44%
Cc1ccc(C(=O)OCC(=O)Nc2ccc3c(c2)OCO3)o1 -0.88%
O=C(CCN1C(=O)c2ccc([N+](=O)[O-])cc2C1=O)Nc1nccs1 12%
CCc1nc(SCC(=O)c2c[nH]c3ccccc23)n[nH]1 7.37%
CCC1CCC(NC(=O)Nc2cccc(OC)c2)CC1 (stereo unspecified) 6.91%
CCN(CC)c1ccc(/C=C2\NC(=O)NC2=O)cc1 2.93%
COC(=O)c1c(NC(=O)CSc2nnnn2-c2ccccc2)sc2c1CCC(C)C2 (stereo unspecified) -4.55%
O=C(NNC(=O)c1ccccc1[N+](=O)[O-])c1cnccn1 14%
O=C1CN(C(=O)COC(=O)CNS(=O)(=O)c2ccccc2)c2ccccc2N1 1.51%
CC1COC(C)(CC(=O)NN2C(=O)c3ccccc3C2=O)O1 (stereo unspecified) -7.61%
COc1ccc(OC)c(NC(=O)Cn2c(C)nc3ccccc3c2=O)c1 0.767%
C=C(C)C(=O)/C=C/c1ccc(Br)cc1 -7.74%
O=C(CN1C(=O)C(=O)c2ccccc21)OCN1C(=O)c2ccccc2C1=O 3.86%
CC(=O)Nc1ccccc1NC(=O)C/C(C)=N/NC(=O)c1ccc([N+](=O)[O-])c(Cl)c1 8.45%
CCOCc1nnc(NC(=O)C2c3ccccc3Oc3ccccc32)s1 14.7%
Cc1cc(C(=O)CSc2nc(N)cc(=O)[nH]2)c(C)n1CCc1ccc(F)cc1 3.52%
COC(=O)C1=NNC2(C)C(=O)N(c3ccc(C)cc3)C(=O)C12 (stereo unspecified) -13.1%
O=C(NCc1ccccn1)c1cc(-c2ccc(Cl)cc2)nc2ccccc12 -16.1%
O=C1CCC/C(=N\NC(=O)c2ccc(COc3ccccc3-c3ccccc3)cc2)C1 -0.617%
COc1cc(C=C(c2nc3ccccc3s2)c2nc3ccccc3s2)ccc1O -9.21%
CC(C)CNC(=O)C(=O)N/N=C/c1cccs1 8.26%
C=CCC(C)(NCc1ccccc1)c1ccco1 (stereo unspecified) 3.83%

Potency, active:
Cc1ccc(NC(=S)Nn2cnnc2)cc1 3.55 µM
O=C(O)Cn1cc(/C=C2\SC(=O)N(c3ccccc3)C2=O)c2ccccc21 22.4 µM
COc1ccc(-n2c(=S)[nH]c3cc(C(=O)NCCCN4CCCC4=O)ccc3c2=O)cc1OC 2.51 µM
CCn1c(SCC(=O)Nc2sc3c(c2C(N)=O)CCC(C)C3)nnc1-c1ccco1 (stereo unspecified) 22.4 µM
O=C(c1ccco1)N1N=C(C2CCCCC2)CC1(O)C(F)(F)F (stereo unspecified) 6.31 µM
O=C(/C=C/c1ccccc1Cl)NC(=S)Nc1ccccc1C(=O)NC1CCCCC1 22.4 µM
COC(=O)C1(Cc2ccccc2)C=C2C(=C(c3ccccc3)C(=O)C2C)CN1 (stereo unspecified) 25.1 µM
CC(C)(C)C(=O)NC(=S)Nc1sc2c(c1C(N)=O)CCC2 2 µM
CN(C)CCCN1C(=O)c2cccc3c(Br)ccc(c23)C1=O 22.4 µM
Clc1ccc2nc(SCc3nnc(-c4ccccc4)o3)[nH]c2c1 11.2 µM
COC(=O)C1=C(C)N(Cc2ccco2)C(=O)/C1=C\c1ccc([N+](=O)[O-])cc1 15 µM
N#CC1=C(N)NC(SCC(=O)c2ccc(Cl)cc2)=C(C#N)C12CCCC2 28.2 µM
CCOC(=O)C1CCN(C(=S)Nc2ccc(S(N)(=O)=O)cc2)CC1 15 µM
CCOC(=O)c1sc(N/N=C/c2ccccc2)nc1C 8.91 µM
COc1cc(NC(=O)c2ccccc2)c(OC)cc1NC(=O)CN1CCN(c2ccccn2)CC1 15.8 µM

Potency, inconclusive:
Cc1ccc(-n2[nH]c(C)c(/C=N/NC(=O)c3cccc([N+](=O)[O-])c3)c2=O)cc1C 12.6 µM [inhibitor, partial curve]
CCOC(=O)c1ccccc1NC1c2ccccc2C(=O)N1c1ccc(C)cn1 (stereo unspecified) 35.5 µM [inhibitor, single point]
O=C1c2cnc3nc(SCc4ccccc4)nn3c2CC2c3ccccc3CCN12 (stereo unspecified) 28.2 µM [inhibitor, partial curve]
Cc1ccccc1OCCCCCNCCO 39.8 µM [inhibitor, single point]
CCNC(=O)n1cc(-n2cncn2)c(-c2ccc(Cl)cc2)n1 39.8 µM [inhibitor, single point]
O=C(CSc1nnnn1C1CCCC1)Nc1ccc(F)cc1 22.4 µM [inhibitor, single point]
O=c1onc(-c2ccc(Cl)cc2)n1Cc1ccc(F)cc1 39.8 µM [inhibitor, single point]
N#Cc1cn(-c2ccccc2)nc1-c1cc2ccccc2oc1=O 31.6 µM [inhibitor, partial curve]
Cc1cccc(-n2c(C)cc(C)c(C#N)c2=O)c1 39.8 µM [inhibitor, single point]
S=c1[nH]nc(-c2cc3c(s2)-c2ccccc2CC3)o1 25.1 µM [inhibitor, partial curve]
CC1/C(=N/O)C(CN(C)C)C2CC1C2(C)C (stereo unspecified) 25.1 µM [inhibitor, single point]
NC(=O)c1ccsc1NC(=O)C1CCCN1S(=O)(=O)c1ccc(Cl)cc1 (stereo unspecified) 39.8 µM [inhibitor, single point]
Cc1cccc(C)c1NC(=O)/C(=C/c1ccco1)c1ccccc1 28.2 µM [inhibitor, single point]
CCC1CCCCN1C(=O)Cn1c(=O)n(CCC(=O)NCc2ccco2)c(=O)c2sccc21 (stereo unspecified) 39.8 µM [inhibitor, single point]
CCCCCn1c(CNC(=O)c2cccs2)nc2ccccc21 1 µM [inhibitor, full curve]
C=CCn1c(SCCCc2ccccc2)nc2c1c(=O)[nH]c(=O)n2C 22.4 µM [inhibitor, partial curve, poor fit]
CCN(CC)S(=O)(=O)c1ccc(OC)c(NC(=O)COc2ccc3c(C)cc(=O)oc3c2)c1 28.2 µM [inhibitor, partial curve]
COc1c(O)c(O)cc2c1oc1c3ccccc3oc(=O)c21 39.8 µM [inhibitor, single point]
Cc1ccc(S(=O)(=O)NN2C(=O)c3ccccc3NC2c2ccccn2)cc1 (stereo unspecified) 28.2 µM [inhibitor, single point]
Cc1cc(/C=C(\C#N)C(=O)NCc2cccs2)c(C)n1-c1ccc([N+](=O)[O-])cc1 2 µM [inhibitor, full curve]
CC(=O)c1cc2c(cc1NC(=O)CSc1nc3ccc(C)cc3[nH]1)OCO2 28.2 µM [inhibitor, partial curve]
Cc1nc2c(nnn2Cc2ccccc2)c(=O)n1-c1ccccc1 39.8 µM [inhibitor, single point]
CCS(=O)(=O)c1ccc(O)c(NC(=O)COc2ccc(Cl)cc2)c1 39.8 µM [inhibitor, single point]
Cc1nnc(C)n1/N=C/c1ccc(C(C)C)cc1 39.8 µM [inhibitor, single point]
c1ccc2c(c1)ccc1nnc(SCc3ccc4c(c3)OCO4)n12 22.4 µM [inhibitor, single point]
CCOC(=O)c1c(NC(=O)CN(CC)CC)sc2c1CCN(C(=O)OCC)C2 25.1 µM [inhibitor, single point]
COc1ccc(C2=NN(C(=O)c3cccs3)C(c3ccc(OC)cc3)C2)cc1 (stereo unspecified) 31.6 µM [inhibitor, partial curve]
N#Cc1c(-c2ccccc2)nc(SCC(=O)Nc2ccccc2F)[nH]c1=O 37.7 µM [inhibitor, single point]
Cn1c(-c2sc3cc(C(F)(F)F)cnc3c2-c2ccccc2)n[nH]c1=S 25.1 µM [inhibitor, partial curve]
CN(C)S(=O)(=O)c1cc(NC(=O)CN2CCNC(=O)C2)ccc1Cl 22.4 µM [inhibitor, single point]
CSc1nnc2c3ccccc3c3ccccc3c2n1 35.5 µM [inhibitor, single point]
CNC(=O)c1cc2c(=O)n3cc(C)ccc3nc2n(Cc2ccco2)c1=N 22.4 µM [inhibitor, partial curve]
CCCCc1nnc(NC(=O)C(=O)OCC)s1 39.8 µM [inhibitor, single point]
CCc1ccc(C(=O)Nc2ccc(S(=O)(=O)Nc3nc(C)cc(C)n3)cc2)o1 39.8 µM [inhibitor, single point]
Cn1c(=O)c(-c2ccc(F)cc2)nc2cnc(Oc3ccccc3)nc21 28.2 µM [inhibitor, partial curve]
COc1ccc(/C=C/C(=O)NC2CCCCCCC2)cc1S(=O)(=O)N1CCOCC1 15.8 µM [inhibitor, partial curve]
Cc1c(O)c(CN2CCCC2)cc2c3c(c(=O)oc12)CCC3 28.2 µM [inhibitor, partial curve]
COc1ccccc1CNC(=O)COC(=O)c1cccnc1SCC(=O)NCc1ccccc1OC 25.1 µM [inhibitor, single point]
